Measured values from PubChem BioAssay (Tox21).
This list was built around the results that the source calls inconclusive (neither active nor inactive); the mix of calls is not that of the screen. For some assays here: Potencies beside an inconclusive call are fits to weak or partial responses and may not hold up. Calls of active or inactive are those of the source. Unless noted, the call rests on the fitted dose curve; in most records, active means well fitted curve in the direction sought with a large enough effect in the repeat runs; inconclusive means weak or mixed curves; inactive means no such curve, though single readings can be large; an effect the other way counts as inactive or inconclusive.

Key:
[1] = qHTS assay for small molecule agonists of the p53 signaling pathway (AID 651631; calls by dose curve; further: potency means the concentration at half of the fitted maximal effect; nearly all actives have a fitted effect of over 15% in size); details: HCT-116 p53RE-bla reporter, beta-lactamase FRET ratio, 16 h; activation: at 73.3 µM (top of the series) unless noted
How it was run: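 Read-out is beta-lactamase FRET fluorescence measured 2 h after substrate addition at room temperature, in HCT-116 cells with a p53 response element-driven reporter exposed to compounds for 16 h at 37 °C.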

[2] = qHTS assay for small molecule agonists of the p53 signaling pathway - cell viability (AID 651633; calls by dose curve; further: potency means the concentration at half of the fitted maximal effect; nearly all actives have a fitted effect of over 30% in size)
How it was run: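 Viability counter-read: CellTiter-Glo luminescence (30 min, room temperature) in the same p53RE-bla plates. These plates had been exposed to compounds for 16 h at 37 C.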

[3] = qHTS assay for small molecule disruptors of the mitochondrial membrane potential (AID 720635); details: HepG2 mitochondrial membrane potential, Mito-MPS dye ratio; ratio activity, negative = MMP loss: at 83.2 µM (top of the series) unless noted; further: potency means the concentration at half of the fitted maximal effect
How it was run: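 Mitochondrial membrane potential tracked with Mito-MPS dye, red aggregates (ex 540/em 590 nm) against green monomers (ex 490/em 535 nm). Compound treatment 1 hr at 37C, dye 30 min in HepG2.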

[4] = qHTS assay for identifying genotoxic compounds that show differential cytotoxicity against isogenic chicken DT40 cell lines with known DNA damage response pathways - Rev3 mutant cell line (AID 743014); details: chicken DT40 Rev3-/- viability, CellTiter-Glo, 40 h; activity, negative = cytotoxicity: at 68.4 µM (top of the series) unless noted; further: potency means the concentration at half of the fitted maximal effect; nearly all actives have a fitted effect of over 55% in size
[5] = qHTS assay for identifying genotoxic compounds that show differential cytotoxicity against isogenic chicken DT40 cell lines with known DNA damage response pathways - Rad54/Ku70 mutant cell line (AID 743015); details: DT40 Rad54/Ku70 mutant viability, CellTiter-Glo, 40 h; activity change, negative = cytotoxicity: at 66.8 µM (top of the series) unless noted; further: potency means the concentration at half of the fitted maximal effect; nearly all actives have a fitted effect of over 60% in size
[6] = molecular target: Androgen receptor (Homo sapiens) (UniProt P10275); test: qHTS assay to identify small molecule antagonists of the androgen receptor (AR) signaling pathway (AID 743035; active means well fitted inhibition curve with a large enough effect in the signal ratio in the repeat runs, not every such curve was filed as active; inconclusive means weak or mixed curves, or effect the other way; inactive means no such curve, though single readings can be large or run the other way; the % refers to the signal ratio; further: potency means the concentration at half of the fitted maximal effect); details: HEK293 AR-UAS-bla, R1881-stimulated, beta-lactamase FRET, 16 h; activity change, negative = inhibition: at 58.5 µM (top of the series) unless noted
UniProt P10275, sequence (P10275 whole entry, looked up): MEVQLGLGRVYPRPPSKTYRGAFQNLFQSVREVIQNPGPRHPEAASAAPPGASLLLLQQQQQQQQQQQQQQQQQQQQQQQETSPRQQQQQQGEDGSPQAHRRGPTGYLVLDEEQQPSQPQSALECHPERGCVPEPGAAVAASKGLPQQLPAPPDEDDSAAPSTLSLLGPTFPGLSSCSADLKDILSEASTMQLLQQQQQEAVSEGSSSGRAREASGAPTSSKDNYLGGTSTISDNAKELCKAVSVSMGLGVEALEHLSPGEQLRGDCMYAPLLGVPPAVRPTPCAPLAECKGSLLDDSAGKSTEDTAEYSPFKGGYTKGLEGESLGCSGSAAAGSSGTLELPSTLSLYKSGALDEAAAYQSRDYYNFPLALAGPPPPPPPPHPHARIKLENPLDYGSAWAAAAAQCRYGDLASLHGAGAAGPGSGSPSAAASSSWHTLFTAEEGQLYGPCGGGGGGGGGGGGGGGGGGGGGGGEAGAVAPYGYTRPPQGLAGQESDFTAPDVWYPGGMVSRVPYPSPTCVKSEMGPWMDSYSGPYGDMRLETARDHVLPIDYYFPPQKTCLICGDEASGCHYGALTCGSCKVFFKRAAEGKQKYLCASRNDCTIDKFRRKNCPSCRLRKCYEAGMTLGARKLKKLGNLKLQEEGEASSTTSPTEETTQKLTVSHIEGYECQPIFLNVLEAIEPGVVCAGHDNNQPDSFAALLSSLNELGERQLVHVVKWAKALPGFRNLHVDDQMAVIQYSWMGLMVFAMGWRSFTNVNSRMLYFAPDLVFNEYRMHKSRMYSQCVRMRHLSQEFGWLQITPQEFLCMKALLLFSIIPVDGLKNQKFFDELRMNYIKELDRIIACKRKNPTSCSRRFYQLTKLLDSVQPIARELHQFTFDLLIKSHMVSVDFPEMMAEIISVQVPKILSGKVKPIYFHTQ
How it was run: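 Quantitative HTS of the Tox21 10K library used HEK293 AR-UAS-bla cells stimulated with R1881 alongside compound for 16 h at 37C, followed by beta-lactamase FRET detection (LiveBLAzer B/G, 2 h, RT).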

[7] = molecular target: Androgen receptor (Homo sapiens) (UniProt P10275); test: qHTS assay to identify small molecule antagonists of the androgen receptor (AR) signaling pathway using the MDA cell line (AID 743042; further: potency means the concentration at half of the fitted maximal effect; nearly all actives have a fitted effect of over 55% in size)
How it was run: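 Antagonist mode: compounds plus R1881 agonist added to MDA-kb2 AR-luc cells, incubated 16 h at 37C. Luciferase reporter luminescence quantified, with multiplexed CellTiter-Fluor readout for cell viability.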

[8] = qHTS assay to identify small molecule antagonists of the thyroid receptor (TR) signaling pathway - cell viability counter screen (AID 743064); details: GH3.TRE-Luc viability, CellTiter-Fluor, 24 h; activity change, negative = cytotoxic: at 70.3 µM (top of the series) unless noted; further: potency means the concentration at half of the fitted maximal effect; nearly all actives have a fitted effect of over 50% in size
How it was run: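 Fluorescence from CellTiter-Fluor, added after 23.5 h exposure at 37 °C, reported viability of GH3.TRE-Luc cells co-treated with compound and 1 nM T3. Measured in the same wells as the luciferase TR readout.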

[9] = molecular target: Estrogen receptor (Homo sapiens) (UniProt P03372); test: qHTS assay to identify small molecule antagonists of the estrogen receptor alpha (ER-alpha) signaling pathway (AID 743069; active means well fitted curve in the direction sought with a large enough effect in the signal ratio in the repeat runs, not every such curve was filed as active; inconclusive means weak or mixed curves, or effect the other way; inactive means no such curve, though single readings can be large or run the other way; the % refers to the signal ratio; further: potency means the concentration at half of the fitted maximal effect); details: HEK293 ER-alpha-UAS-bla, beta-lactamase ratio, antagonist mode; activity, negative = inhibition: at 69.4 µM (top of the series) unless noted
UniProt P03372, sequence (P03372 whole entry, looked up): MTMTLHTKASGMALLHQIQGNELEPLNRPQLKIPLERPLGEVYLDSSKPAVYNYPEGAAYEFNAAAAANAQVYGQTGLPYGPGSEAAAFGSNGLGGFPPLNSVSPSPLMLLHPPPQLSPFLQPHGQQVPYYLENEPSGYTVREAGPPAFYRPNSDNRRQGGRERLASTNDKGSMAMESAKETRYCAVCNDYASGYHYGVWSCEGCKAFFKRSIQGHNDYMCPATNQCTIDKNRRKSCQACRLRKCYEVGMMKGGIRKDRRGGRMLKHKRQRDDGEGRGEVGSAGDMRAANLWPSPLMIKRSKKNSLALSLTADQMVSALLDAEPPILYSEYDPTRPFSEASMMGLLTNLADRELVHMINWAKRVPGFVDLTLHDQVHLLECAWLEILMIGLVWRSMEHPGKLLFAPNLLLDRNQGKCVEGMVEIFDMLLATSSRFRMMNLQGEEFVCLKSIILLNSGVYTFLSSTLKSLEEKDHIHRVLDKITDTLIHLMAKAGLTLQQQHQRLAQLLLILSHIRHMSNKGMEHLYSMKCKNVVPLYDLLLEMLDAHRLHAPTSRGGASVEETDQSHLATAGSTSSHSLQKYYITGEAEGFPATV
How it was run: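 Antagonist mode: compounds in DMSO were co-added with 17beta-estradiol to ER-alpha-bla HEK293 cells (2% charcoal-stripped serum) and left 18 h at 37C. Reporter inhibition was measured as FRET fluorescence after 2 h LiveBLAzer substrate at room temperature.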

[10] = molecular target: Estrogen receptor (Homo sapiens) (UniProt P03372); test: qHTS assay to identify small molecule agonists of the estrogen receptor alpha (ER-alpha) signaling pathway using the BG1 cell line (AID 743079); details: BG1Luc4E2 cells, ERE-luciferase agonist, 22 h; activation: at 70.3 µM (top of the series) unless noted; further: on the % scale 0 is the no-effect control and ±100 the full control effect; nearly all actives have a fitted effect of over 20% in size
Aromatase (Homo sapiens) = Aromatase (Homo sapiens) (UniProt P11511); test: qHTS assay to identify aromatase inhibitors (AID 743083); further: potency means the concentration at half of the fitted maximal effect; nearly all actives have a fitted effect of over 55% in size
UniProt P11511, sequence (P11511 whole entry, looked up): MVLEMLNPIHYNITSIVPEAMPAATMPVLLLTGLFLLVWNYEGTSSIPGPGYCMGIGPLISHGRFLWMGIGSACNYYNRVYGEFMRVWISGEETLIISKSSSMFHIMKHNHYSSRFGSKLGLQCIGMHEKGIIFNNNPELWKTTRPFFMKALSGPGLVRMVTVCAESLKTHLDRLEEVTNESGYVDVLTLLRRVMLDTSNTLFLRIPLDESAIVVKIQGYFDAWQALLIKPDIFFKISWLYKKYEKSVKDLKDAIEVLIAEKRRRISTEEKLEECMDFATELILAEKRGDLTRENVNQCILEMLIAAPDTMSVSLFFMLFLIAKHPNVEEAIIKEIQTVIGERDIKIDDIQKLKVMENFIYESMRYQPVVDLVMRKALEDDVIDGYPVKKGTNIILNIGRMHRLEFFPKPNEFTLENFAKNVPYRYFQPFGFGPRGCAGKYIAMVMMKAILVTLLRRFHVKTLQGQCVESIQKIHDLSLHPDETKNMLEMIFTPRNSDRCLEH

[11] = molecular target: Peroxisome proliferator-activated receptor gamma (Homo sapiens) (UniProt P37231); test: qHTS assay to identify small molecule antagonists of the peroxisome proliferator-activated receptor gamma (PPARg) signaling pathway (AID 743191; calls by dose curve; further: potency means the concentration at half of the fitted maximal effect; nearly all actives have a fitted effect of over 30% in size); details: HEK293H PPARg-UAS-bla, beta-lactamase ratio, antagonist, 17 h; ratio activity, negative = inhibition: at 62.6 µM (top of the series) unless noted
UniProt P37231, sequence (P37231 whole entry, looked up): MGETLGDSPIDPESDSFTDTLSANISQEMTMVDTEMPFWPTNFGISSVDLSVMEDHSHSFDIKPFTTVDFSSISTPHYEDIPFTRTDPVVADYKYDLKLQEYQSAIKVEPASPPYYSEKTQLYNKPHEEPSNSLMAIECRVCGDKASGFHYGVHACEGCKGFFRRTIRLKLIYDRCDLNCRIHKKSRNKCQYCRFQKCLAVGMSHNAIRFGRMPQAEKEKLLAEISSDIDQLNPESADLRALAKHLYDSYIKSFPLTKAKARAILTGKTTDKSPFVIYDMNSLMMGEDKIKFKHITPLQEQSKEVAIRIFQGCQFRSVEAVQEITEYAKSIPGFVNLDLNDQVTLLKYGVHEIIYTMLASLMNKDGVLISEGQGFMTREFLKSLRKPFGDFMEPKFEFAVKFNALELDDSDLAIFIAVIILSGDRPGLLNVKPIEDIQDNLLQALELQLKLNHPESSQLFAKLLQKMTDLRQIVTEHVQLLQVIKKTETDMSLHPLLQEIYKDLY
How it was run: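 Beta-lactamase reporter under UAS control in HEK293H PPARg-bla cells; compound treatment 17 h at 37C. Read-out: fluorescence intensity after 1 h room-temperature incubation with LiveBLAzer B/G FRET substrate.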

[12] = qHTS assay to identify small molecule antagonists of the peroxisome proliferator-activated receptor gamma (PPARg) signaling pathway - cell viability counter screen (AID 743194); details: PPARg-bla HEK293H viability, CellTiter-Glo luminescence, 17 h, co-treated with 50 nM rosiglitazone; activity change, negative = cytotoxicity: at 62.6 µM (top of the series) unless noted; further: potency means the concentration at half of the fitted maximal effect; nearly all actives have a fitted effect of over 55% in size
How it was run: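 Viability was measured as CellTiter-Glo luminescence in GeneBLAzer PPARg UAS-bla HEK293H cells. These cells had been exposed 17 h at 37 C to compounds together with rosiglitazone at 50 nM final, with the beta-lactamase readout taken in the same wells.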

[13] = qHTS assay for small molecule agonists of the antioxidant response element (ARE) signaling pathway (AID 743202; active means well fitted activation curve with a large enough effect in the signal ratio in the repeat runs, not every such curve was filed as active; inconclusive means weak or mixed curves, or effect the other way; inactive means no such curve, though single readings can be large or run the other way; the % refers to the signal ratio; further: on the % scale 0 is the no-effect control and ±100 the full control effect); details: HepG2 ARE-bla reporter, beta-lactamase FRET, 16 h; activation: at 73.3 µM (top of the series) unless noted
How it was run: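 After 16 hours of compound treatment at 37 C, HepG2 cells with a stably integrated ARE-driven beta-lactamase reporter were loaded 2 hours at room temperature with LiveBLAzer B/G FRET substrate and fluorescence intensity measured.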

[14] = qHTS assay for small molecule agonists of the antioxidant response element (ARE) signaling pathway - cell viability counter screen (AID 743203; calls by dose curve); details: ARE-bla HepG2 viability, CellTiter-Glo luminescence, 16 h; viability change, negative = cytotoxic: at 73.3 µM (top of the series)
How it was run: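 Viability counter screen: stably transfected ARE-bla HepG2 line, 16 hrs compound exposure at 37C/5% CO2, ATP-based CellTiter-Glo luminescence measured in the reporter wells.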

[15] = molecular target: Peroxisome proliferator-activated receptor delta (Homo sapiens) (UniProt Q03181); test: qHTS assay to identify small molecule antagonists of the peroxisome proliferator-activated receptor delta (PPARd) signaling pathway (AID 743215; active means well fitted inhibition curve with a large enough effect in the signal ratio in the repeat runs, not every such curve was filed as active; inconclusive means weak or mixed curves, or effect the other way; inactive means no such curve, though single readings can be large or run the other way; the % refers to the signal ratio;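 further: cells stimulated with agonist L165041 at 300 nM final during compound exposure; on the % scale 0 is the no-effect control and ±100 the full control effect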); details: HEK293H PPARd-UAS-bla, beta-lactamase FRET ratio, antagonist, 17 h; ratio activity, negative = inhibition: at 62 µM (top of the series) unless noted
UniProt Q03181, sequence (Q03181 whole entry, looked up): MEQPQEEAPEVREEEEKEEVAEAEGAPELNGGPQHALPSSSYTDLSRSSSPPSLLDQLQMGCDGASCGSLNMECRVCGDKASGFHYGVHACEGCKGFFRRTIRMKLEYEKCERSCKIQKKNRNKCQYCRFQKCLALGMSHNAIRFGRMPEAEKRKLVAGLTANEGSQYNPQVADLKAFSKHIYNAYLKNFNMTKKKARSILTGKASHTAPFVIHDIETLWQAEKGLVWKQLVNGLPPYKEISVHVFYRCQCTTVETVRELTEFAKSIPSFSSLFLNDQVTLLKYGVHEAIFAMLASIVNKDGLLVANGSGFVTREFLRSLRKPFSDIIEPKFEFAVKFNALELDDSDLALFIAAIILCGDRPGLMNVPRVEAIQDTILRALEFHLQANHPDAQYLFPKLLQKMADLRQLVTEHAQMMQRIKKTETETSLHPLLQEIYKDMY
How it was run: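 Plated HEK293H PPARd-bla cells rested 5 h at 37 C and 5% CO2. Compound, then agonist L165041 at 300 nM final, was added; 17 h at 37 C followed. Substrate loading, 2 h room temperature, fluorescence measured.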

[16] = molecular target: Vitamin D3 receptor (Homo sapiens) (UniProt P11473); test: qHTS assay to identify small molecule agonists of the vitamin D receptor (VDR) signaling pathway (AID 743222; calls by dose curve; further: on the % scale 0 is the no-effect control and ±100 the full control effect); details: HEK293T VDR-UAS-bla, beta-lactamase FRET ratio, 16 h; activation: at 63.5 µM (top of the series) unless noted
UniProt P11473, sequence (P11473 whole entry, looked up): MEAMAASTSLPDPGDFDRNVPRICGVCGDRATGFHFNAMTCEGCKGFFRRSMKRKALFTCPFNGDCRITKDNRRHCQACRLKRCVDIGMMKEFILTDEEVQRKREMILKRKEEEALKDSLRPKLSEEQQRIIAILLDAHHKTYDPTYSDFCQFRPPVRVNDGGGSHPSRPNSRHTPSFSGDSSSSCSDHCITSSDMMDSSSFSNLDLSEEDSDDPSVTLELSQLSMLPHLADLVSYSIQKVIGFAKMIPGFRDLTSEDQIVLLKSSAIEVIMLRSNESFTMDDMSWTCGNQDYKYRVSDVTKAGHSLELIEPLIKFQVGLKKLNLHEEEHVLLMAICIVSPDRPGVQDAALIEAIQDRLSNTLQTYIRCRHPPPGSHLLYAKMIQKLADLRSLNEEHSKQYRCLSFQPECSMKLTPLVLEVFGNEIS
How it was run: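 Fluorescence from cleaved LiveBLAzer B/G FRET substrate served as readout. VDR-bla cells had been treated 16 h at 37C with test compounds in DMSO, following a 4 h settling period, and substrate was loaded for 2 h at RT.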
Tags describe the fitted curve by direction and shape or compound fluorescence and quenching.

O=C(c1ccccc1O)c1ccccc1O
active: Potency [3] 12.1 µM | Potency [11] 43.2 µM
inconclusive: Potency [1] 67.9 µM [cytotoxic, single point] | Potency [2] 67.9 µM [cytotoxic, single point] | Potency [4] 67.9 µM [cytotoxic, partial curve, poor fit] | Potency [5] 67.9 µM [cytotoxic, single point] | Potency [6] 15.3 µM [rising, partial curve, poor fit] | Potency [7] 60.5 µM [inhibitor, partial curve, poor fit] | Potency [8] 60.5 µM [cytotoxic, single point] | Potency [9] 4.32 µM [activator, full curve, poor fit] | Potency (Aromatase (Homo sapiens)) 15.2 µM [inhibitor, partial curve, poor fit] | Potency [12] 61 µM [cytotoxic, single point] | activation [13] 23.5% | ratio activity, negative = inhibition [15] 3.24%
inactive: Potency [10] | Potency [14] | Potency [16]
